From PMC10604658
These are yes or no findings as the source states them, for the method shown. In cells and extracts the contact can be indirect. Some results given as binding are weak or reduced against the parent protein; the word gives no strength. Tags and fused reporters may be left off the sequences shown.

Experiments:
Assay in all cases: pull-down; HEK293T cells co-transfected with MYC-ETS2 (or its mutants) and SFB-DUB (or USP39 mutants); SFB protein pulled down with S-protein agarose beads from NETN lysate, overnight at 4 °C; bound MYC protein detected by anti-MYC blot
[1] = biological target: T1, SFB-USP44 (human) (UniProt Q9H0E7)
T1 sequence: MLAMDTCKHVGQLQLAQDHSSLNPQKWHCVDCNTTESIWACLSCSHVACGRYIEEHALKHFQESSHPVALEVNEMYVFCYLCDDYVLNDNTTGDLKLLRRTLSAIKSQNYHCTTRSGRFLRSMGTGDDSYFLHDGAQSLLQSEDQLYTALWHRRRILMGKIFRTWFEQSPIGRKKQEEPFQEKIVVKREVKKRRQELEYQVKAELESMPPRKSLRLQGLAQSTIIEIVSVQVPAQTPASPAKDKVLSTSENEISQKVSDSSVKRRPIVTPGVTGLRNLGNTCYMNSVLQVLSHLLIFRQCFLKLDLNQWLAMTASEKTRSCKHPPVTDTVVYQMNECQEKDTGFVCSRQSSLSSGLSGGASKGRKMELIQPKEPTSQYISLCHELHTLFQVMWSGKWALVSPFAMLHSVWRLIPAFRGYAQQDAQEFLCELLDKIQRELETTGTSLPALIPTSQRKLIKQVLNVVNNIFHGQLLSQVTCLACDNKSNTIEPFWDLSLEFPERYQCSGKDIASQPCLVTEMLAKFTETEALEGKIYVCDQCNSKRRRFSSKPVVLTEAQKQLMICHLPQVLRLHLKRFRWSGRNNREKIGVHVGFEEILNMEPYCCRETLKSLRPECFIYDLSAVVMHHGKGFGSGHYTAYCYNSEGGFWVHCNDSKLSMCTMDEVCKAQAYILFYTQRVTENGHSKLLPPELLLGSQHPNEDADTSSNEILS

[2] = biological target: T2, SFB-USP39 ΔUSP (ubiquitin-specific protease domain-deleted, aa 1–219) (human) (UniProt Q53GS9)
T2 sequence: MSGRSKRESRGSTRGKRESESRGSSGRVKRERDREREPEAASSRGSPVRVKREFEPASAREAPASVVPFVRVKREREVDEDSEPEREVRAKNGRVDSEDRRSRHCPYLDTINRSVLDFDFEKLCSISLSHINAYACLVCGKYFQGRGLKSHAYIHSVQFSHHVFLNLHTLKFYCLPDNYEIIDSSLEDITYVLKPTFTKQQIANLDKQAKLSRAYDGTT

[3] = biological target: T3, SFB-OTUD7A (human) (UniProt Q8TE49)
T3 sequence: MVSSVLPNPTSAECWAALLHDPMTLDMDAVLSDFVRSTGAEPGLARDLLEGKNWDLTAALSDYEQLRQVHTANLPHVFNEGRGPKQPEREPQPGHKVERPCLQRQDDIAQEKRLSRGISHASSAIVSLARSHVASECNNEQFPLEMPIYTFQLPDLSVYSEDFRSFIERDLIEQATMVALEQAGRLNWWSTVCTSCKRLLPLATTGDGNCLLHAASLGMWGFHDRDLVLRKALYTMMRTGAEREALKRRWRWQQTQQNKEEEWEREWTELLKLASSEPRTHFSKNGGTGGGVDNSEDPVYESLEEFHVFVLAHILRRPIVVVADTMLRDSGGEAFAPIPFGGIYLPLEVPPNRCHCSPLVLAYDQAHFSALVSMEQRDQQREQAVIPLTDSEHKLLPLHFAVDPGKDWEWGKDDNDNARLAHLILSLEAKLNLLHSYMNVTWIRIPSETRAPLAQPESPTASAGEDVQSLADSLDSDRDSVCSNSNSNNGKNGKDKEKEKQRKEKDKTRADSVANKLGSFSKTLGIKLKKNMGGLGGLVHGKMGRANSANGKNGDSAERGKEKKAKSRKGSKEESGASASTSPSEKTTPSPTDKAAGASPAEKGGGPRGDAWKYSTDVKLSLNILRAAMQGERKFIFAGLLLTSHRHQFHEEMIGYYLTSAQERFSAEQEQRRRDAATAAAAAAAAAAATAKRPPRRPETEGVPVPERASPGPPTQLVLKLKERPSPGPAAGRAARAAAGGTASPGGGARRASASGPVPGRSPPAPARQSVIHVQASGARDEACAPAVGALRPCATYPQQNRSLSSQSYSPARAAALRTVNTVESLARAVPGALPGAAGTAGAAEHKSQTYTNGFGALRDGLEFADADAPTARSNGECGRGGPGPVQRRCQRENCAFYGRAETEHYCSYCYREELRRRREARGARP

[4] = biological target: T4, SFB-USP39 ΔZNF (zinc finger domain-deleted, aa 1–102 & 201–565) (human) (UniProt Q53GS9)
T4 sequence: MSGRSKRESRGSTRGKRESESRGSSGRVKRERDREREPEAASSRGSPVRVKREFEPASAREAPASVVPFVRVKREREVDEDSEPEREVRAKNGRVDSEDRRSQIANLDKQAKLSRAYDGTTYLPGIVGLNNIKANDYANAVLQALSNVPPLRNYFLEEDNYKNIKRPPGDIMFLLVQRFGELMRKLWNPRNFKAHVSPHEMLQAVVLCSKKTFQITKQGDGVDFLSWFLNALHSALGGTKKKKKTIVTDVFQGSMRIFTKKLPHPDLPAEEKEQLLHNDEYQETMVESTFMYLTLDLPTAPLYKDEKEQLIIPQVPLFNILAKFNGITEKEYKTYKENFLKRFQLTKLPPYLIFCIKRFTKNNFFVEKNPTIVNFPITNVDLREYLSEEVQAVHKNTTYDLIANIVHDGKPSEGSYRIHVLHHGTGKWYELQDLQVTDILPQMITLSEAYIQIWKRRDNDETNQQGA

- binding [1]: binds weakly
- binding [2]: binds
- binding [3]: binds
- binding [4]: binds
B1: MYC-ETS2 (protein, UniProt P15036 1-469)
chain: MNDFGIKNMDQVAPVANSYRGTLKRQPAFDTFDGSLFAVFPSLNEEQTLQEVPTGLDSISHDSANCELPLLTPCSKAVMSQALKATFSGFKKEQRRLGIPKNPWLWSEQQVCQWLLWATNEFSLVNVNLQRFGMNGQMLCNLGKERFLELAPDFVGDILWEHLEQMIKENQEKTEDQYEENSHLTSVPHWINSNTLGFGTEQAPYGMQTQNYPKGGLLDSMCPASTPSVLSSEQEFQMFPKSRLSSVSVTYCSVSQDFPGSNLNLLTNNSGTPKDHDSPENGADSFESSDSLLQSWNSQSSLLDVQRVPSFESFEDDCSQSLCLNKPTMSFKDYIQERSDPVEQGKPVIPAAVLAGFTGSGPIQLWQFLLELLSDKSCQSFISWTGDGWEFKLADPDEVARRWGKRKNKPKMNYEKLSRGLRYYYDKNIIHKTSGKRYVYRFVCDLQNLLGFTPEELHAILGVQPDTED
